From article PMC12820563
Some of the results follow. The list includes weakly bound sequences.

The sequences below were run against T1, MBP-FoxP3dN (UniProt Q99JB6) (assay: PD-seq (MBP pull-down with sequencing)). Conditions: 20 mM Tris-HCl pH 7.5, 100 mM NaCl, 1.5 mM MgCl2, 0.4 uM protein, 0.1 uM dsDNA library, 30 min, room temperature, amylose pull-down; high values mean tight binding; double strand, one strand shown.
T1 sequence: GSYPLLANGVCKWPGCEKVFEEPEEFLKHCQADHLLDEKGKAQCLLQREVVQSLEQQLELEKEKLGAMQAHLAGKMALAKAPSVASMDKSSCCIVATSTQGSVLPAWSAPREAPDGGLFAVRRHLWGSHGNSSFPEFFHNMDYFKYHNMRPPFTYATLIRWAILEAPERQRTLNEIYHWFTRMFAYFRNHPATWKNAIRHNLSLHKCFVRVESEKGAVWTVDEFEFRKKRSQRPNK
“GATGATTGTTCTCCCAGCTGATGAATTAAAGTTATCGAGTAAACAAATTTTCCTAATCTTTCTGTTCAAGCGCCATCTAC” gave a binding signal (RPM ratio (pull-down/input)) of 0.678.
Sequence “GATGATTGTTCTCCCAGCTGATGAATTAATTACATCGAGTAAACAAATTTTCCTAATCTTTCTGTTCAAGCGCCATCTAC” has a binding signal (RPM ratio (pull-down/input)) of 0.851.
Sequence “GATGATTGTTCTCCCAGCTGATGAATTTAAGCCATCGAGTAAACAAATTTTCCTAATCTTTCTGTTCAAGCGCCATCTAC” has a binding signal (RPM ratio (pull-down/input)) of 1.47.
“GATGATTGTTCTCCCAGCTGATGAATTATTGTCATCGAGTAAACAAATTTTCCTAATCTTTCTGTTCAAGCGCCATCTAC” showed a binding signal (RPM ratio (pull-down/input)) of 1.71.
Sequence “GATGATTGTTCTCCCAGCTGATGAATTCACTCATTCGAGTAAACAAATTTTCCTAATCTTTCTGTTCAAGCGCCATCTAC” has a binding signal (RPM ratio (pull-down/input)) of 0.414.
“GATGATTGTTCTCCCAGCTGATGAATTCAACGTCTCGAGTAAACAAATTTTCCTAATCTTTCTGTTCAAGCGCCATCTAC” was tested, and the binding signal (RPM ratio (pull-down/input)) was 0.525.
Sequence “GATGATTGTTCTCCCAGCTGATGAATTACGGGTCTCGAGTAAACAAATTTTCCTAATCTTTCTGTTCAAGCGCCATCTAC” has a binding signal (RPM ratio (pull-down/input)) of 0.747.
In the case of “GATGATTGTTCTCCCAGCTGATGAATTGAATACATCGAGTAAACAAATTTTCCTAATCTTTCTGTTCAAGCGCCATCTAC”, the binding signal (RPM ratio (pull-down/input)) is reported as 0.741.
In the case of “GATGATTGTTCTCCCAGCTGATGAATTGCTTATCTCGAGTAAACAAATTTTCCTAATCTTTCTGTTCAAGCGCCATCTAC”, the binding signal (RPM ratio (pull-down/input)) is reported as 2.09.
Sequence “GATGATTGTTCTCCCAGCTGATGAATTGGGAGTTTCGAGTAAACAAATTTTCCTAATCTTTCTGTTCAAGCGCCATCTAC” has a binding signal (RPM ratio (pull-down/input)) of 0.781.
With “GATGATTGTTCTCCCAGCTGATGAATTTGCGGCATCGAGTAAACAAATTTTCCTAATCTTTCTGTTCAAGCGCCATCTAC” the binding signal (RPM ratio (pull-down/input)) was 1.14.
In the case of “GATGATTGTTCTCCCAGCTGATGAATTCGCGTCTTCGAGTAAACAAATTTTCCTAATCTTTCTGTTCAAGCGCCATCTAC”, the binding signal (RPM ratio (pull-down/input)) is reported as 1.09.
Work on “GATGATTGTTCTCCCAGCTGATGAATTGGTGGTTTCGAGTAAACAAATTTTCCTAATCTTTCTGTTCAAGCGCCATCTAC” yielded a binding signal (RPM ratio (pull-down/input)) of 1.44.
“GATGATTGTTCTCCCAGCTGATGAATTCAGCAATTCGAGTAAACAAATTTTCCTAATCTTTCTGTTCAAGCGCCATCTAC” showed a binding signal (RPM ratio (pull-down/input)) of 3.74.
In the case of “GATGATTGTTCTCCCAGCTGATGAATTACTAGCGTCGAGTAAACAAATTTTCCTAATCTTTCTGTTCAAGCGCCATCTAC”, the binding signal (RPM ratio (pull-down/input)) is reported as 0.483.
“GATGATTGTTCTCCCAGCTGATGAATTTCACCTTTCGAGTAAACAAATTTTCCTAATCTTTCTGTTCAAGCGCCATCTAC” gave a binding signal (RPM ratio (pull-down/input)) of 0.378.
With “GATGATTGTTCTCCCAGCTGATGAATTAAGCCGCTCGAGTAAACAAATTTTCCTAATCTTTCTGTTCAAGCGCCATCTAC” the binding signal (RPM ratio (pull-down/input)) was 1.21.
In the case of “GATGATTGTTCTCCCAGCTGATGAATTAGGTGATTCGAGTAAACAAATTTTCCTAATCTTTCTGTTCAAGCGCCATCTAC”, the binding signal (RPM ratio (pull-down/input)) is reported as 1.13.
Sequence “GATGATTGTTCTCCCAGCTGATGAATTTCGACCCTCGAGTAAACAAATTTTCCTAATCTTTCTGTTCAAGCGCCATCTAC” has a binding signal (RPM ratio (pull-down/input)) of 0.44.
Work on “GATGATTGTTCTCCCAGCTGATGAATTCAAAGCTTCGAGTAAACAAATTTTCCTAATCTTTCTGTTCAAGCGCCATCTAC” yielded a binding signal (RPM ratio (pull-down/input)) of 0.295.
Sequence “GATGATTGTTCTCCCAGCTGATGAATTCTGACGTTCGAGTAAACAAATTTTCCTAATCTTTCTGTTCAAGCGCCATCTAC” has a binding signal (RPM ratio (pull-down/input)) of 0.686.
In the case of “GATGATTGTTCTCCCAGCTGATGAATTTGAAGTTTCGAGTAAACAAATTTTCCTAATCTTTCTGTTCAAGCGCCATCTAC”, the binding signal (RPM ratio (pull-down/input)) is reported as 0.401.
For “GATGATTGTTCTCCCAGCTGATGAATTCCAGGCTTCGAGTAAACAAATTTTCCTAATCTTTCTGTTCAAGCGCCATCTAC”, the binding signal (RPM ratio (pull-down/input)) was 0.321.
With “GATGATTGTTCTCCCAGCTGATGAATTACGATCATCGAGTAAACAAATTTTCCTAATCTTTCTGTTCAAGCGCCATCTAC” the binding signal (RPM ratio (pull-down/input)) was 0.571.
Work on “GATGATTGTTCTCCCAGCTGATGAATTGTTGCCCTCGAGTAAACAAATTTTCCTAATCTTTCTGTTCAAGCGCCATCTAC” yielded a binding signal (RPM ratio (pull-down/input)) of 2.42.
In the case of “GATGATTGTTCTCCCAGCTGATGAATTGCTAGCGTCGAGTAAACAAATTTTCCTAATCTTTCTGTTCAAGCGCCATCTAC”, the binding signal (RPM ratio (pull-down/input)) is reported as 0.81.
Work on “GATGATTGTTCTCCCAGCTGATGAATTGCGGATGTCGAGTAAACAAATTTTCCTAATCTTTCTGTTCAAGCGCCATCTAC” yielded a binding signal (RPM ratio (pull-down/input)) of 0.793.
“GATGATTGTTCTCCCAGCTGATGAATTACCCTGCTCGAGTAAACAAATTTTCCTAATCTTTCTGTTCAAGCGCCATCTAC” showed a binding signal (RPM ratio (pull-down/input)) of 0.272.
“GATGATTGTTCTCCCAGCTGATGAATTTAGCTATTCGAGTAAACAAATTTTCCTAATCTTTCTGTTCAAGCGCCATCTAC” gave a binding signal (RPM ratio (pull-down/input)) of 2.49.
With “GATGATTGTTCTCCCAGCTGATGAATTAGTCATCTCGAGTAAACAAATTTTCCTAATCTTTCTGTTCAAGCGCCATCTAC” the binding signal (RPM ratio (pull-down/input)) was 2.33.
“GATGATTGTTCTCCCAGCTGATGAATTAGGCCACTCGAGTAAACAAATTTTCCTAATCTTTCTGTTCAAGCGCCATCTAC” showed a binding signal (RPM ratio (pull-down/input)) of 4.87.
“GATGATTGTTCTCCCAGCTGATGAATTTGCTTTTTCGAGTAAACAAATTTTCCTAATCTTTCTGTTCAAGCGCCATCTAC” showed a binding signal (RPM ratio (pull-down/input)) of 5.38.
“GATGATTGTTCTCCCAGCTGATGAATTTCGAATTTCGAGTAAACAAATTTTCCTAATCTTTCTGTTCAAGCGCCATCTAC” gave a binding signal (RPM ratio (pull-down/input)) of 1.24.
Sequence “GATGATTGTTCTCCCAGCTGATGAATTCGCAGTGTCGAGTAAACAAATTTTCCTAATCTTTCTGTTCAAGCGCCATCTAC” has a binding signal (RPM ratio (pull-down/input)) of 0.747.
In the case of “GATGATTGTTCTCCCAGCTGATGAATTAGAAGCTTCGAGTAAACAAATTTTCCTAATCTTTCTGTTCAAGCGCCATCTAC”, the binding signal (RPM ratio (pull-down/input)) is reported as 0.31.
“GATGATTGTTCTCCCAGCTGATGAATTCTACCCCTCGAGTAAACAAATTTTCCTAATCTTTCTGTTCAAGCGCCATCTAC” showed a binding signal (RPM ratio (pull-down/input)) of 0.269.
“GATGATTGTTCTCCCAGCTGATGAATTCCAGCCTTCGAGTAAACAAATTTTCCTAATCTTTCTGTTCAAGCGCCATCTAC” was tested, and the binding signal (RPM ratio (pull-down/input)) was 1.42.
“GATGATTGTTCTCCCAGCTGATGAATTTACCTATTCGAGTAAACAAATTTTCCTAATCTTTCTGTTCAAGCGCCATCTAC” gave a binding signal (RPM ratio (pull-down/input)) of 0.591.
“GATGATTGTTCTCCCAGCTGATGAATTCAGAGTTTCGAGTAAACAAATTTTCCTAATCTTTCTGTTCAAGCGCCATCTAC” showed a binding signal (RPM ratio (pull-down/input)) of 1.17.
Sequence “GATGATTGTTCTCCCAGCTGATGAATTCGCATACTCGAGTAAACAAATTTTCCTAATCTTTCTGTTCAAGCGCCATCTAC” has a binding signal (RPM ratio (pull-down/input)) of 1.33.
